Results reported in PubChem BioAssay AID686978 (National Center for Advancing Translational Sciences (NCATS), 2013).
“And” between values parts separate entries of the source, which are not always exact repeats. Equal values may be shown once. In all, about 420,000 compounds went through this assay and about 64,000 (15%) were called active. Inconclusive results, whose numbers are uncertain, are shown with a selection of clear calls. The call rests on the fitted dose curve; in most records, active means well fitted inhibition curve with a large enough effect; inconclusive means small, poorly fitted or top-dose-only effect; inactive means flat fitted curve, though single readings scatter. Potencies of inconclusive entries are left out as doubtful fits.

Assay: qHTS for Inhibitors of human tyrosyl-DNA phosphodiesterase 1 (TDP1): qHTS in cells in absence of CPT; further: nearly all actives have a fitted effect of over 55% in size
Details: DT40 Tdp1-/- hTDP1 cells, no CPT, ATP luminescence, 48 h; series mostly up to 46.2 µM
Method in brief: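 Compound effects on proliferation are scored in DT40 Tdp1-/-;hTDP1 cells in the absence of CPT. ATP levels (CellTiter-Glo luminescence) are recorded after a ≥48 hr, 37 °C incubation.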
Potency means the concentration at half of the fitted maximal effect; tags describe the fitted curve by direction and shape.

Row | Compound | Potency
1 | Cc1ccc(NC(=O)Nc2ccc3c(c2)N(C)C(=O)CS3)cc1C | inconclusive [inhibitor, single point]
2 | c1ccc(-c2nc3ccccc3c3nc4ccccc4n23)cc1 | inactive
3 | Cc1ccc(N(Cc2ccccc2)C(=O)c2cccc(S(=O)(=O)N3CC(C)OC(C)C3)c2)cc1 (centres undefined) | active: 16.4 µM
4 | O=C(Cc1ccccc1)NN=Cc1ccccc1 | inactive
5 | Cc1ccc(C)c(OCc2cc(C(=O)NC(c3ccccn3)C(F)(F)F)no2)c1 (centres undefined) | inconclusive [inhibitor, single point]
6 | CCOC(=O)CC1C(=O)NCCN1S(=O)(=O)c1ccc(NC(C)=O)cc1 (centres undefined) | inactive
7 | COCc1cc(OC)nc(-c2csc(C)n2)n1 | inactive
8 | CCC(C)n1c(SC(C)C#N)nc2ccccc2c1=O (centres undefined) | active: 17.8 µM and active: 23.1 µM
9 | CCN1C(=O)[C@@H]2[C@H](C1=O)[C@@H]1C(=O)Nc3ccccc3C(=O)N1[C@@H]2c1cccc(Cl)c1 | inactive
10 | Cn1ccc2c(-c3ccc(CO)cc3)cc3c(c21)C1CCC3O1 (centres undefined) | inconclusive [inhibitor, full curve, poor fit]
11 | Cc1ccc(S(=O)(=O)N(C)C)cc1NC(=O)c1cccnc1Oc1ccccc1 | inconclusive [inhibitor, partial curve, poor fit]
12 | S=C(NCc1cccnc1)Nc1ccc(Oc2ccc(Cl)cc2)cc1 | inconclusive [inhibitor, single point]
13 | COc1cc(Cl)c(CN2CCCC(CO)(Cc3cccc(Cl)c3)C2)cc1OC (centres undefined) | inconclusive [inhibitor, single point]
14 | Cc1ccccc1CN1CCC(n2nccc2NC(=O)CCCc2ccccc2)CC1 | inconclusive [inhibitor, single point]
15 | O=C(c1ccc(CNS(=O)(=O)c2ccc(Br)cc2)cc1)N1CCCC1 | inconclusive [inhibitor, single point]
16 | Cc1ccccc1NC(=O)CNc1ccccc1C(=O)NCc1ccco1 | inconclusive [inhibitor, single point]
17 | Cc1cc2c(N=NC(=O)C3CC3c3ccccc3)c(O)[nH]c2cc1Br (centres undefined) | inconclusive [inhibitor, partial curve, poor fit]
18 | O=C1N=C(N2CCN(c3ccccc3)CC2)S/C1=C/c1cccs1 | inconclusive [inhibitor, partial curve]
19 | Cc1nc(N)sc1C(=O)Nc1ccccc1 | inconclusive [inhibitor, single point]
